# PubChem BioAssay AID686970 (National Center for Advancing Translational Sciences (NCATS), 2013)
# Hit rate of the full screen: of about 360,000 compounds, about 6,000 (1.7%) were called active. Inconclusive results, whose numbers are uncertain, are shown with a selection of clear calls. The call rests on the fitted dose curve; in most records, active means well fitted cell-killing curve with a large enough effect; inconclusive means small, poorly fitted or top-dose-only effect, or effect the other way; inactive means flat fitted curve, though single readings scatter. Potencies of inconclusive entries are left out as doubtful fits.
# Assay: qHTS for induction of synthetic lethality in tumor cells producing 2HG: qHTS for the HT-1080-NT fibrosarcoma cell line;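 further: NT is the 2HG producing partner of a matched IDH1 knockdown line; nearly all actives have a fitted effect of over 55% in size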;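 on activity, negative = less viability: 0% = DMSO-treated cells and -100% = media-only wells without cells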
# Settings: HT-1080-NT fibrosarcoma viability, CellTiter-Glo ATP luminescence, 48 h; activity, negative = less viability: at 46.1 µM (top of the series) unless noted
# Summary of the method: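 HT-1080-NT; 750 cells/well; 5% FBS RPMI; 48 h compound, 37 degrees C; CellTiter-Glo luminescence; curve fitting and curve-class assignment.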
# Potency means the concentration at half of the fitted maximal effect; tags describe the fitted curve by direction and shape.
SMILES,Potency,"activity, negative = less viability"
Cc1ccccc1NC(=O)CC1C(=O)Nc2ccccc2N1CC(=O)N(C)C1CCS(=O)(=O)C1 (stereo not given),inactive,–
Cc1ccccc1-c1cc(C(=O)Nc2sc(C(=O)OC(C)C)c(C)c2C#N)c2ccccc2n1,"inconclusive [cytotoxic, partial curve]",–
C/C(CCC(C)C)=N\NC(=O)COc1ccccc1-c1ccccc1,"inconclusive [cytotoxic, single point]",–
CSc1ncc2[nH]c(C(O)c3ccccc3)nc2n1 (stereo not given),–,inconclusive: 36.7%
COc1ccccc1-n1cnc2cc(NC(=O)c3ccco3)ccc21,active: 11.2 µM,–
COc1ccc(OC)c(-c2cc(C3CCN(c4ncccc4[N+](=O)[O-])CC3)[nH]n2)c1,"inconclusive [cytotoxic, single point]",–
CCN1/C(=C/c2ccc3cc(C)ccc3[n+]2CC)Sc2ccc3sccc3c21,"inconclusive [cytotoxic, full curve]",–
Cc1onc(-c2c(Cl)cccc2Cl)c1C(=O)NCCc1ccncc1,inactive,–
O=C(Cn1ncc(Cl)c(Cl)c1=O)N1CCc2ccccc21,active: 4.61 µM,–
CCN(CC)S(=O)(=O)c1ccc2[nH]c(=O)cc(C(=O)Nc3ccc(C)cc3)c2c1,"inconclusive [cytotoxic, single point]",–
Cc1nc(C(F)(F)F)c(C(=O)N/N=C(\N)c2ccccn2)s1,"inconclusive [cytotoxic, full curve, poor fit]",–
CSc1ncc(Cl)c(C(=O)Nc2cccc(Cl)c2)n1,inactive,–
FC(F)(F)c1cccc(NC(=S)Nc2cccc(NC(=S)Nc3cccc(C(F)(F)F)c3)n2)c1,"inconclusive [cytotoxic, single point]",–
Cn1c(=O)c2c(nc(Br)n2Cc2ccc3ccccc3c2)n(C)c1=O,"inconclusive [cytotoxic, full curve, poor fit]",–
COc1ccc(-c2coc3c(C(=O)NCC4CC4)cccc23)c(C)c1,"inconclusive [cytotoxic, single point]",–
Cc1c(Cl)cccc1Nc1nc(N)nc(CSCCO)n1,inactive,–
CCOC(=O)C(NCCc1ccccc1F)(NC(C)=O)C(F)(F)F (stereo not given),inactive,–
CCOc1ccc(OCCNC(=O)c2oc3ccccc3c2COC)cc1,inactive,–
COc1ccccc1N1CCN(C(=O)C2CCN(S(=O)(=O)c3ccc4c(c3)CC(C)N4C(C)=O)CC2)CC1 (stereo not given),inactive,–
O=C1NC[C@@H](CCCCN2C[C@H](Cc3ccc(O)cc3)N(CCC3CCCCC3)C(=O)C2=O)N(CC2CCCCC2)C1=O,"inconclusive [cytotoxic, single point]",–
CC(=O)C1CCC2C3CCC4=CC(=O)C=CC4(C)C3CCC12C (stereo not given),inactive,–
CCOC(=O)c1ccccc1OCc1cc(/C=N/NC(=O)c2cccnc2)ccc1OC,"inconclusive [cytotoxic, single point]",–
CC(c1ccco1)N(C(=O)COc1ccc(Cl)cc1Cl)c1ccccn1 (stereo not given),"inconclusive [cytotoxic, single point]",–
COc1ccc(-c2sc3ccc(OC)cc3c2C#Cc2ccccn2)cc1,inactive,–
O=C(/C=C/c1ccco1)NC(=S)Nc1ccc(N2CCCC2)cc1,"inconclusive [cytotoxic, partial curve]",–

SMILES,Potency,"activity, negative = less viability"
O=C(Nc1ccccc1F)c1csc([C@@H]2C[C@H](O)[C@@H](CO)O2)n1,"inconclusive [rising, single point]",–
COc1ccc(CCN2CC(C#N)=C3c4cc(OC)c(OC)cc4CCN3C2)cc1OC,inactive,–
COc1cccc2c(SCC(=O)N/N=C/c3ccc(O)cc3O)cc(C)nc12,–,inconclusive: -21.7% [cytotoxic]
CN(C)S(=O)(=O)c1cccc(NC(=O)CSc2nc3ccccc3[nH]2)c1,inactive,–
Cc1cc(Br)ccc1NC(=O)CN(C)C(=O)C1CCN(c2ncnc3sc(C)c(C)c23)CC1,"inconclusive [cytotoxic, single point]",–
O=S(=O)(c1ccc(F)cc1)N(CCO)CC(O)Cn1c2ccccc2c2ccccc21 (stereo not given),"inconclusive [cytotoxic, single point]",–
CCOC(=O)C1=C(CS(=O)(=O)c2ccc(F)c(C)c2)NC(=O)NC1c1ccc(O)c(O)c1 (stereo not given),inactive,–
CCc1nnc(NC(=O)CSc2ccc(-c3nc4ccccc4[nH]3)cn2)s1,"inconclusive [cytotoxic, single point]",–
CC#CCN(CC#CC)S(=O)(=O)c1ccc(S(=O)(=O)N2CCOCC2)cc1,inactive,–
COc1cc(CN2CCc3ccccc3C2)ccc1O,"inconclusive [cytotoxic, single point]",–
CSCC(C)N1CCC(n2nccc2NC(=O)CCCc2ccccc2)CC1 (stereo not given),inactive,–
C=CCN(C1CCCCC1)S(=O)(=O)c1ccc2c(c1)oc(=O)n2C,inactive,–
Cc1cccc(N(C)c2cc(-c3ccc(F)cc3)nc3ccnn23)c1,inactive,–
OC(COc1ccccc1)CN(Cc1ccccc1)CC(O)COc1ccccc1 (stereo not given),"inconclusive [cytotoxic, single point]",–
CCCC(=O)Nc1ccc2oc(-c3ccc(OC)c(Br)c3)nc2c1,"inconclusive [cytotoxic, partial curve]",–
Cc1cc2c(c(SCC(=O)N(C)c3ccccc3)n1)C(=O)OC2,inactive,–
CCOC(=O)C1CCN(C(=O)C2CCCN(S(=O)(=O)c3ccc(OCC)c(Cl)c3)C2)CC1 (stereo not given),"inconclusive [cytotoxic, single point]",–
Cc1nnc(NC(=O)CSc2nc3ccccc3[nH]2)s1,"inconclusive [rising, full curve, poor fit]",–
c1ccc2c(c1)Cc1ccccc1O2,inactive,–
COc1cc(C(=O)N2CCN(c3ccc(C)cc3C)CC2)cc(OC)c1OC,active: 4.61 µM,–
COCCNC(=O)c1c[nH]c2ccc(S(=O)(=O)N(C)c3ccc(C)c(C)c3)cc2c1=O,"inconclusive [cytotoxic, single point]",–
O=[N+]([O-])c1ccc(N2CCOCC2)cn1,"inconclusive [rising, single point]",–
CC1(C)Cc2ccccc2C(c2cc3ccccc3oc2=O)=N1,active: 20.6 µM,–
Cc1ccc(NC(=O)c2cc(N3CCOCC3)nc3ccccc23)cc1,active: 10 µM,–
COC(=O)c1ccc(NC(=O)Nc2ccc(F)c(Cl)c2)cc1,"inconclusive [cytotoxic, single point]",–

SMILES,Potency,"activity, negative = less viability"
Cc1cc(OCc2cc(C(=O)NCCN3CCCCC3CO)no2)cc(C)c1Cl (stereo not given),"inconclusive [cytotoxic, single point]",–
COc1ccccc1C(=O)NCCNC(=O)c1ccco1,"inconclusive [rising, partial curve, poor fit]",–
Cc1ccc(-n2nc(C)c3c(C)c(CCC(=O)NCC4CCCO4)c(=O)n(C)c32)cc1 (stereo not given),inactive,–
CSC1=NC(C)(C)C=C(/C=C/c2ccc(Cl)cc2)N1,active: 23.1 µM,–
CCN(CC)CCNS(=O)(=O)c1ccc2c3c(cccc13)C(=O)N2,"inconclusive [cytotoxic, single point]",–
Fc1ccc(Nc2nc(Oc3ccccc3F)nc(N3CCCC3)n2)cc1,inactive,–
CC(=O)C1=C(O)C(=O)N(c2ccc(Br)cn2)C1c1ccccc1F (stereo not given),inactive,–
Cc1cc(C)c(C)c(OCCCCN(C)Cc2ccccc2)c1,inactive,–
O=C(COc1ccccc1Cl)Nc1nc(-c2cccs2)cs1,"inconclusive [cytotoxic, single point]",–
O=C(Nc1cccc(S(=O)(=O)Nc2ccc(Cl)cc2)c1)c1ccc2c(c1)OCCO2,"inconclusive [cytotoxic, full curve, poor fit]",–
O=C(c1cccs1)N1CCN(C2CCCCC2)CC1,inactive,–
COc1ccc(-c2cn(-c3ccccc3)c(=S)[nH]2)cc1OC,inactive,–
O=C(NCCN1CCCC1)c1ccc(Cn2c(=S)[nH]c3cc4c(cc3c2=O)OCO4)cc1,inactive,–
Cc1noc2ncnc(N3CCN(c4ccc(F)cc4)CC3)c12,inactive,–
CSc1ccccc1C(=O)N(C)C(c1ccccc1)c1ccccc1,inactive,–
O=C(Nc1ccn(CCCNCc2cccc3ccccc23)c(=O)n1)OCc1ccccc1,"inconclusive [cytotoxic, single point]",–
COc1ccc(C(C(=O)NC2CCCCC2)N(C(=O)CCl)c2ccc(OC)cc2)cc1 (stereo not given),active: 1.64 µM,–
CN(C(=O)c1ccccc1C(=O)OCC(=O)c1ccc(Br)cc1)c1ccccc1,inactive,–
Clc1ccc(OCc2nnc3n2N=C(c2ccc4c(c2)OCCO4)CS3)c(Cl)c1,active: 10 µM,–
CNCCc1ccccn1,"inconclusive [rising, single point]",–
COc1ccc(-c2cc(C(F)(F)F)nc(N3CCN(C)CC3)n2)cc1,"inconclusive [cytotoxic, single point]",–
CSc1ncc(Cl)c(C(=O)Nc2ccc(S(=O)(=O)Nc3nccc(C)n3)cc2)n1,"inconclusive [cytotoxic, single point]",–
CCCC1=Nc2cc(C(=O)NCc3ccco3)ccc2Sc2ccccc21,"inconclusive [cytotoxic, full curve]",–
COc1ccc(-c2cc(C)no2)cc1S(=O)(=O)Nc1ccccc1,"inconclusive [cytotoxic, single point]",–
Fc1cc(F)cc(NC(=S)N2CCN(c3ncccn3)CC2)c1,"inconclusive [cytotoxic, single point]",–
